About 5,300 (4.4%) of roughly 120,000 compounds were called active. The inconclusive results got no clear call from the source; some entries with a clear call stand among them for comparison. The call rests on the fitted dose curve; in most records, active means well fitted inhibition curve with a large enough effect; inconclusive means small, poorly fitted or top-dose-only effect; inactive means no such curve, though single readings can be large or run the other way. Potencies beside an inconclusive call are fits to weak or partial responses and may not hold up.
Assay: qHTS Primary assay for Inhibitors of Plasmodium falciparum Dd2 growth in vitro; further: nearly all actives have a fitted effect of over 65% in size;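 on activity, negative = inhibition: plate controls were DMSO vehicle for no effect and reference drug for full effect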
Conditions: P. falciparum Dd2 growth, SYBR Green, 72 h; activity, negative = inhibition: at 28.9 µM (top of the series) unless noted; series mostly up to 28.9 µM
How it was run: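 Infected erythrocytes (Dd2, 0.3% parasitemia, 2.5% hematocrit final) are added to compound in RPMI-1640/Albumax II medium, grown 72 h at 37C in low oxygen, then lysed with saponin/Triton-X containing SYBR Green and read by fluorescence.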
Potency means the concentration at half of the fitted maximal effect; tags describe the fitted curve by direction and shape.

| Structure (SMILES) | Potency | activity, negative = inhibition |
| --- | --- | --- |
| Cc1cc(=O)n(CC(=O)Nc2ccc(C)c(C)c2)c(N2CCN(c3ccccc3)CC2)n1 | inconclusive: 8.91 µM [inhibitor, partial curve, poor fit] | – |
| c1cnc(-c2nc(C3CCNC3)no2)cn1 (stereo not given) | – | inactive: 32.3% [at 5.79 µM] |
| Cc1ccc(NC(=O)C2CCCN2S(=O)(=O)c2ccc3c(c2)n(C)c(=O)c(=O)n3C)cc1 (stereo not given) | inconclusive: 1 µM [inhibitor, single point] | – |
| CC(=O)NC[C@H]1C[C@@H]2CCN1C[C@@H]2c1cc(-c2cccs2)nc(C)n1 | inconclusive: 10 µM [inhibitor, partial curve, poor fit] | – |
| Cc1noc(C)c1-c1cc(-c2cccc(N[S+](C)(=O)[O-])c2)cn2cncc12 | inactive | – |
| CCn1cc(S(=O)(=O)N2CCC3(CC2)CNC(C(=O)O)C3)cn1 (stereo not given) | inactive | – |
| COc1ccc(-n2cnc3cc(C(=O)NCCC4=CCCCC4)ccc32)cc1 | inconclusive: 8.91 µM [inhibitor, partial curve, poor fit] | – |
| CN(C)C(=O)c1csc(N2CCN(c3cccc(Cl)c3)CC2)n1 | inactive | – |
| O=C(Nc1ccc([C@@H](O)[C@H]2COCC(=O)N2Cc2ccccc2)cc1)c1ccc(F)cc1 | inactive | – |
| O=C(CSc1nc2c([nH]c3ccccc32)c(=O)n1-c1ccc(F)cc1)Nc1ccc2c(c1)OCO2 | active: 11.2 µM | – |
| O=S(=O)(NC[C@H]1O[C@@H](CO)[C@@H](O)[C@H]1N1CCN(c2ccc(F)cc2)CC1)c1ccc(F)cc1 | inactive | – |
| COc1cc(NC(=O)CSc2ccc(-c3sc(C)nc3C)nn2)cc(OC)c1 | inconclusive: 14.1 µM [inhibitor, single point] | – |
| COc1ccc(N2CCN(C(=O)c3ccc(CS(=O)c4cccc(C)c4)o3)CC2)cc1 (stereo not given) | inconclusive: 15.8 µM [inhibitor, single point] | – |
| O=C(C1CCOC1)N1CCC(N(Cc2ccccc2)C2CCOCC2)CC1 (stereo not given) | inconclusive: 10 µM [inhibitor, single point] | – |
| COc1ccc(OC)c(CNC(=O)C2Cn3cccc3C(=O)N2Cc2cccnc2)c1 (stereo not given) | inconclusive: 11.2 µM [inhibitor, single point] | – |
| O=C(c1ccccc1)N1CCC2(C1)C(=O)N(c1ccccc1)c1ccccc12 (stereo not given) | inconclusive: 14.1 µM [inhibitor, partial curve, poor fit] | – |
| COC(=O)C1=C(C)N=C2SC=C(CC(=O)N3CCCC3)N2C1c1cccc(F)c1 (stereo not given) | inconclusive: 0.794 µM [inhibitor, partial curve, poor fit] | – |
| O=C(Nc1cccc(Cl)c1F)N1CCC(Oc2ncccc2C(=O)N2CCOCC2)C1 (stereo not given) | inactive | – |
| COCCN1CCCCCC(O)c2cc(C(=O)N(CCN(C)C)Cc3ccccc3)ccc21 (stereo not given) | inconclusive: 3.55 µM [inhibitor, single point] | – |
| Cc1cc(=O)n(CC(=O)NCc2ccccc2)c(N(C)Cc2ccccc2)n1 | inactive | – |
| Cn1nccc1-c1ncc2c(n1)OCCN(Cc1ccccc1)C2=O | inconclusive: 11.2 µM [inhibitor, single point] | – |
| COc1ccc(CN2Cc3[nH]cnc3C[C@H]2c2nc(-c3ccc(C)cc3)no2)cc1 | active: 22.4 µM | – |

| Structure (SMILES) | Potency | activity, negative = inhibition |
| --- | --- | --- |
| COc1ccc(-c2noc(Nc3cc(OC)cc(OC)c3)n2)cc1 | inconclusive: 11.2 µM [inhibitor, single point] | – |
| O=C(c1cn2ccccc2n1)N1C[C@@H](CO)[C@H](c2ccccn2)C1 | inactive | – |
| Cc1ccc(CNC(=O)N2CCC(Cc3ccc(C(=O)NC4CC4)cc3)CC2)cc1 | inconclusive: 10 µM [inhibitor, single point] | – |
| O=C(CCc1nc(C2CCCN2C(=O)c2n[nH]c3ccccc23)no1)NCc1ccccc1 (stereo not given) | inactive | – |
| N#Cc1ccc(CN2CCC[C@H]2c2nc(-c3ccnc(N4CCOCC4)c3)no2)cc1 | inconclusive: 5.62 µM [inhibitor, single point] | – |
| CC(C)c1noc(C2CCCN(C(=O)CC3CCCCC3)CCC(=O)NCC2)n1 (stereo not given) | inconclusive: 3.16 µM [inhibitor, full curve, poor fit] | – |
| O=S(=O)(c1ccccc1)n1nc(-c2ccc(Cl)cc2)nc1NCc1ccc(F)cc1 | inconclusive: 11.2 µM [inhibitor, partial curve, poor fit] | – |
| CC(=O)N1CC[C@H](c2nnc(-c3cccnc3)o2)C1 | inactive | – |
| OC[C@@H]1CNC[C@H]1C1CCN(Cc2cccc(F)c2)CC1 | inactive | – |
| O=[S+]([O-])(c1ccc(Cl)cc1)c1nnn2c1nc(NCc1ccncc1)c1ccccc12 | inactive | – |
| COc1ccc(-n2c(=O)c3c4c(sc3n(Cc3c(F)cccc3Cl)c2=O)CN(C(C)=O)CC4)cc1OC | inconclusive: 17.8 µM [inhibitor, single point] | – |
| CC1=C[C@@H](CNCc2cccnc2)[C@H](C(C)C)C[C@H]1Cc1nnc(-c2ccccc2)o1 | inconclusive: 1.41 µM [inhibitor, partial curve, poor fit] | – |
| Cc1ccncc1C(=O)N1CCCC(c2nnnn2C)C1 (stereo not given) | inconclusive: 0.1 µM [inhibitor, full curve, poor fit] | – |
| COc1cccc(CCC(=O)NC(C)C(=O)N2CCN(c3ccccn3)CC2)c1 (stereo not given) | inactive | – |
| COc1ccc([C@H]2C[C@@H](O)[C@@H](O)[C@@H]2NCC2CCCC2)cc1 | inconclusive: 4.47 µM [inhibitor, full curve] | – |
| COc1ccc(C(=O)Nc2nc3c(s2)C[C@@H]2[C@](C)(CO)[C@H](O)CC[C@@]2(C)[C@@H]3CC(=O)N2CCOCC2)cc1 | inconclusive: 7.94 µM [inhibitor, partial curve, poor fit] | – |
| COc1ccc(C2CC(=O)N(Cc3cccc(C)c3)c3c2c(C)nn3-c2nc(C)cc(C)n2)c(OC)c1 (stereo not given) | inconclusive: 10 µM [inhibitor, single point] | – |
| CC(Nc1ncnc2c1cnn2-c1cccc(Cl)c1)c1ccccc1 (stereo not given) | inconclusive: 10 µM [inhibitor, single point] | – |
| Cc1cc2c(cc1C)NC(CC(=O)Nc1cccc(C)c1C)C(=O)N2 (stereo not given) | active: 3.16 µM | – |
| CCS(=O)(=O)c1c(S(=O)(=O)CC)c2cc(C(C)(C)C)ccn2c1C(=O)c1ccc(F)cc1 | inconclusive: 3.98 µM [inhibitor, single point] | – |
| O=C(NCc1ccc(Cl)cc1)C(=O)NCC(c1cccnc1)N1CCN(c2ccccc2)CC1 (stereo not given) | inconclusive: 10 µM [inhibitor, partial curve] | – |
| CCCc1cc(CN(C)C(=O)C2CC(=O)N(c3ccc(C(C)C)cc3)C2)[nH]n1 (stereo not given) | inactive | – |

| Structure (SMILES) | Potency | activity, negative = inhibition |
| --- | --- | --- |
| COCCNC(=O)c1ccc2c(c1)N(C)C(CC(=O)N1CCC(C)CC1)CO2 (stereo not given) | inactive | – |
| CC1(C)[C@H](Cc2cc(-c3ccc(F)cc3)on2)C[C@@H]1NC1CCOCC1 | inconclusive: 10 µM [inhibitor, partial curve, poor fit] | – |
| CN(CC(=O)NCc1ccc(Cl)cc1)S(=O)(=O)c1ccc2c(c1)c(=O)n(C)c(=O)n2C | inconclusive: 20 µM [inhibitor, single point] | – |
| COc1ccc(CN2CCCC3(C2)C(=NC2CCCC2)NC(=O)N3c2cccnc2)cc1 (stereo not given) | inconclusive: 11.2 µM [inhibitor, single point] | – |
| COCCN1CC(C(=O)N(C)Cc2ccc(OC)c3ncccc23)CCC1=O (stereo not given) | inactive | – |
| CCc1nc(-c2c3n(c(=O)n(Cc4ccccc4C)c2=O)CCCC3)no1 | inconclusive: 17.8 µM [inhibitor, partial curve, poor fit] | – |
| O=C1CCC2(CCNCC2)CCN1Cc1ccccc1 | inactive | – |
| COCCNC(=O)c1ccc(OC2CCN(Cc3ccc(C)s3)CC2)c(Cl)c1 | active: 6.31 µM | – |
| CCOc1ccc(C2=C(C(C)=O)Sc3nnc(C)n3N2C(C)=O)cc1 | active: 1.12 µM | – |
| Cn1c(=O)n(C)c2cc(CNCc3ccc(F)cc3)ccc21 | inconclusive: 12.6 µM [inhibitor, single point] | – |
| CC(CCc1ccccc1)NC(=O)c1ccc(Cn2ccn3nc4c(c3c2=O)CCCC4)cc1 (stereo not given) | active: 8.91 µM | – |
| O=C(Nc1cccc(-c2nnc3n2CCCC3)c1)c1ccc(F)c(F)c1 | inconclusive: 3.98 µM [inhibitor, partial curve, poor fit] | – |
| COc1ccccc1C(=O)N1CCC2(CC1)C(=NC1CCCCC1)NC(=O)N2c1cc(F)cc(F)c1 | inconclusive: 12.6 µM [inhibitor, single point] | – |
| Cc1cc(C)cc(-n2c(SCC(=O)Nc3ccccc3F)nc3c(oc4ccccc43)c2=O)c1 | inconclusive: 17.8 µM [inhibitor, single point] | – |
| COc1ccc(NC(=O)c2cccc3c2CCN3C(=O)c2ccc(F)cc2)c(OC)c1 | inconclusive: 10 µM [inhibitor, single point] | – |
| Cc1ccc(NC(=O)N(Cc2c[nH]c3ccccc23)C2CCCCCC2)cc1C | inconclusive: 5.01 µM [inhibitor, partial curve, poor fit] | – |
| COc1ccccc1-c1[nH]ncc1CN1CCn2nnc(CCC(=O)N3CCCC3)c2C1 | inconclusive: 11.2 µM [inhibitor, single point] | – |
| COc1ccc(CCC(=O)NC2CCc3nnc(C)n3CC2)cc1OC (stereo not given) | inactive | – |
| Cc1ccc(C(=O)N2CCC(n3cc(-c4nc(-c5ccccc5)no4)nn3)CC2)s1 | inconclusive: 0.891 µM [inhibitor, partial curve, poor fit] | – |
| CC(C)NC(=O)CN1CN(c2ccccc2)C2(CCN(C(=O)NCc3ccccc3)CC2)C1=O | inactive | – |
| O=C(NCc1ccccc1F)[C@H]1CN(Cc2ccccc2)C[C@H]1C(=O)O | inactive | – |
